Laboratory results: article PMC4336329 (PLoS ONE, 2015)
The campaign covered roughly 310,000 compounds. About 2,200 (0.71%) showed an effect of 50% or more. Effects have a minus sign here. Some of the results follow.

Biological target: human ether-à-go-go-related gene (hERG) potassium channel (human, UniProt Q12809)
Experiment: primary screen, population patch clamp on CHO cells stably expressing hERG

human ether-à-go-go-related gene (hERG) potassium channel, sequence (Q12809 whole entry, looked up): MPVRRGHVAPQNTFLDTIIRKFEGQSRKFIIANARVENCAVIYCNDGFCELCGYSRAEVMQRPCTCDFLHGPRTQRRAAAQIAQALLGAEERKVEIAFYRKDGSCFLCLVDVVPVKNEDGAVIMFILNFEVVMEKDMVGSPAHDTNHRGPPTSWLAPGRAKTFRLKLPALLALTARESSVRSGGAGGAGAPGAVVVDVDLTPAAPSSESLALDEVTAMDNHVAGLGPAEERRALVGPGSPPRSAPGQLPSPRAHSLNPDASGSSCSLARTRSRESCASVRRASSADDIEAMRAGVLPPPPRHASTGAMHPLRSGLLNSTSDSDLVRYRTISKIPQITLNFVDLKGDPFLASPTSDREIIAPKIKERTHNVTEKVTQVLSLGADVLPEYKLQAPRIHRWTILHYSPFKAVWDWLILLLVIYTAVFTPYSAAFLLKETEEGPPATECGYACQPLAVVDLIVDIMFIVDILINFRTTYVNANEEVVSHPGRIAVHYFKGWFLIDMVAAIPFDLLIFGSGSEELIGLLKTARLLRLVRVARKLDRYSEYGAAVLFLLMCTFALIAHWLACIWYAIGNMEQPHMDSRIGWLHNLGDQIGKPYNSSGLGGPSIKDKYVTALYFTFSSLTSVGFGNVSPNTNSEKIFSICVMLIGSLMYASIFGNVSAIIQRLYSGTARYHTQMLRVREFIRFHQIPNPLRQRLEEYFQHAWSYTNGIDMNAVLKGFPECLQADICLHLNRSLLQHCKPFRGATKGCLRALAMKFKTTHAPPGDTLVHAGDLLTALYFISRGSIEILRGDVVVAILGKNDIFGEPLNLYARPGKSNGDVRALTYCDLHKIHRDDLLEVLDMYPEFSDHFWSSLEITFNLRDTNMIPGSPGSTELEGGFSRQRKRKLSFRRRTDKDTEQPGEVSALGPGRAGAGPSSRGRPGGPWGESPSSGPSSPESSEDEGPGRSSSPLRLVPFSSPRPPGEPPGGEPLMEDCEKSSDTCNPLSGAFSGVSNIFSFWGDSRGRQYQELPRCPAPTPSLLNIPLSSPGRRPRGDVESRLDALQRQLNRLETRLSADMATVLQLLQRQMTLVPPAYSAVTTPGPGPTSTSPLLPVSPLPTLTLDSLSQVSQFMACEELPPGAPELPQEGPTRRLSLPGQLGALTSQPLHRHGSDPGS

SMILES	hERG current change (%, negative = inhibition) at 1uM
COc1ccc(OCC#CCN2CCC(C)CC2)cc1.O=C(O)C(=O)O	4.86%
Cc1cccc2c(=O)oc(-c3ccccc3Cl)nc12	11%
COc1ccc(C2CC(c3c(-c4ccccc4)c4cc(Cl)ccc4[nH]c3=O)=NN2C(=O)CCC(=O)O)cc1 (stereo not shown)	9.98%
C/C(=N\Nc1nc2ccccc2[nH]1)c1ccccn1	-55.5%
COc1ccc(/C=N/N2CCN(c3ccc(Cl)cc3)CC2)cc1	17.1%
COC(=O)c1sc(S(=O)(=O)NC(C)C(=O)O)c(C(=O)OC)c1C (stereo not shown)	-4.83%
CC(C)(C)NCC1(CO)SC(N)=NC1=O.O.O=S(=O)(O)O (stereo not shown)	11.1%
CNC(=O)CSc1nnc(-c2ccccn2)n1Cc1ccco1	3.09%
Cn1c(O)c(C=Nc2ccccc2)c(=O)n(C)c1=O	8.14%
Cc1ccccc1NC(=O)CCCCCN1C(=O)[C@@H]2Cc3ccccc3CN2C1=O	-1%
O=C(CCNC(=O)C1CCN(S(=O)(=O)c2ccc(F)cc2)CC1)NC1CC1	6.19%
O=C(NC(=S)N1CCN(Cc2ccccc2)CC1)c1ccccc1	5.95%
O=C(COc1ncnc2ccccc12)N1CCOCC1	7.29%
COc1ccccc1NC(=O)COc1ccccc1C(=O)Nc1ccccc1	9.6%
Cc1ccc(-c2cc(C(=O)Nc3cccnc3)[nH]n2)c(O)c1C	8.35%
CCCC(C)C(=O)Nc1nc(C)c(-c2csc(Nc3cc(OC)ccc3OC)n2)s1 (stereo not shown)	14.5%
Cc1ccc(NC(=O)CCc2c(C)nc3ncnn3c2C)cc1	5.78%
Cc1cc(Cl)ccc1NNC(=O)c1snnc1C	7.02%
COC(=O)CSc1nc(NC(C)C)nc(N2CCOCC2)n1	-1.9%
Cn1c(=O)c2c(SCC(=O)N3CCOCC3)nc(C3CCCCC3)nc2n(C)c1=O	9.63%

SMILES	hERG current change (%, negative = inhibition) at 1uM
COC(=O)c1ccc(C)c(NC(=O)CCSc2ccc(C)cc2)c1	-1.11%
CC(C)(C#N)NC(=O)C1CCCN1S(=O)(=O)c1ccc2ccccc2c1 (stereo not shown)	5.69%
O=C(N/N=C/c1coc2ccccc2c1=O)c1cc(Br)c(O)c(Br)c1	12.9%
Cc1ccc(OCc2cc(C(=O)N3CCCC(O)C3)no2)cn1 (stereo not shown)	5.21%
O=C(Cc1cccs1)NCc1ccc(Cl)cc1	8.15%
CCCCOc1ccc(C(=O)N/C(=C/C=C/c2ccccc2)C(=O)NCCO)cc1	-1.05%
Cc1ccccc1-n1ncc(C(C)NC(=O)c2ccco2)c1C (stereo not shown)	12.3%
CC(=O)c1sc(NC(=O)COc2ccc([N+](=O)[O-])cc2)nc1C	11.8%
C[C@@H]([C@H](O)c1ccccc1)N(C)C(=S)Nc1ccccc1	15.7%
Cc1ccc(CN2CCCN(Cc3ccc(Cl)cc3)S2(=O)=O)cc1	18.2%
CC(=O)Nc1ccc(NC(=O)c2ccccc2F)cc1	1.81%
O=C1NC(=S)N/C1=C/c1cc2c(cc1[N+](=O)[O-])OCO2	17.2%
O=C(NCCCn1ccnc1)C1CC(c2cccc(Br)c2)=NO1 (stereo not shown)	-5.44%
COc1ccc(/C=C/c2n[nH]c(=O)c(C#N)c2C)cc1	6.14%
OC1/C(=C/c2ccc(F)cc2)N2CCC1CC2 (stereo not shown)	8.33%
CC(OC(=O)CN1C(=O)c2ccccc2C1=O)C(=O)NCc1ccccc1 (stereo not shown)	9.26%
CCn1ccnc1CNCc1cn(-c2cc(C)ccc2C)nc1-c1ccccc1	-9.33%
O=C(Nc1ccc(COc2ccccc2)cc1)Nc1cccc(C(=O)O)c1	8.02%
CN(Cc1cccs1)C(=O)c1cc(S(=O)(=O)N2CCOCC2)ccc1N1CCCC1	7.03%
COc1ccc(OC)c(NS(=O)(=O)Cc2ccccc2)c1	4.14%

SMILES	hERG current change (%, negative = inhibition) at 1uM
O=C(CSc1nnc(-c2ccc(F)cc2)o1)Nc1ccccc1N1CCOCC1	-0.758%
Cc1ccccc1NC(=O)C1CCCN1S(=O)(=O)c1cccc2cccnc12 (stereo not shown)	-1.4%
CCOC(=O)C1CCCN(c2nc(C)nc3c2oc2ccccc23)C1.Cl (stereo not shown)	8.69%
COc1cc(/C=C2/NC(=O)NC2=O)cc(Br)c1OCc1ccccc1	-4.73%
Cc1ccc(C)c(NC(=S)N2CCN(c3cccc(C(F)(F)F)c3)CC2)c1	14.7%
O=C(CN1C(=O)C2CC=C(Cl)CC2C1=O)NCc1ccccc1 (stereo not shown)	1.61%
COc1cccc2[nH]c3c(N4CCC(C(N)=O)CC4)ncnc3c12	13.1%
Cc1csc2c(NC3CCN(Cc4ccccc4)CC3)ncnc12	9.59%
CCCCCC(=O)NC(=S)Nc1ccc(NC(=O)c2ccco2)cc1	8.13%
O=C(CCCN=C1NS(=O)(=O)c2ccccc21)OCC(=O)N1CCc2ccccc21	13.1%
Cc1cc(NCCNC2=CC(=O)CCC2)nc2ccccc12	-1.44%
CC(=O)NN(O)C1N(C)C(=O)N(Cc2ccccc2)C1(C)C (stereo not shown)	12.6%
COc1cc(OC)c(OC)cc1/C=C1/Cc2ccccc2C1=O	10.2%
CCCC1=NN2C(=N)/C(=C\c3cc(C)n(Cc4ccccc4)c3C)C(=O)N=C2S1	10.6%
COc1cccc(NC(=O)CCc2nnc3ccc(N4CCC(C)CC4)nn23)c1	10.3%
CC(C)(C)NC(=O)NC(=O)COC(=O)CNC(=O)c1cc(Cl)cc([N+](=O)[O-])c1	8.37%
CCc1nnc(NC(=O)CCC(=O)NCc2ccc(C)cc2)s1	-12%
COc1ccc(S(=O)(=O)Nc2c(C)cc(C)cc2C)c2cccnc12	7.05%
